Experimental findings from US20100210537A1, “USE OF A DEFENSIN PEPTIDE AS A THERAPEUTIC AGENT” (priority 2007, published 2010) are described below.

Where no end group is shown, it is not given here.

This assay deals with RAW 264.7 (Mouse leukaemic monocyte macrophage cell line) cells. Put plainly: Phagocytosis assay (Fluorescein-labeled Escherichia coli, flow cytometry). The following applies: 10 micrograms per ml; RAW 264.7 cells, Fluorescein-labeled E. coli. The protocol: RAW 264.7 (Mouse leukaemic monocyte macrophage cell line) cells were obtained from ATCC and grown in RPMI 1640 medium containing 10% FBS. Cells were incubated in 12×75 mm tubes at 37° C. with test peptides-10 micrograms per ml-for 30 min prior to adding Fluorescein-labeled Escherichia coli bacteria as the agent to be ingested. After the cells were incubated for additional 60 min at 37° C. and allowed to ingest the Fluorescein-labeled Escherichia coli bacteria, cells were fixed with 1% paraformaldehyde. The samples were then analyzed by flow cytometry to determine the amount of phagocytosis as a function of brightness (the greater the phagocytic activity, the more fluorescence in the macrophage population). Data are reported as % positive and the mean fluorescence intensity (MFI) of positively stained cells.
On the technique in general: Flow cytometry measures light scatter and fluorescence of single cells or particles in a stream.

Turning to “Cys-Tyr-Cys-Arg-Ile-Pro-Ala-Cys-Ile-Ala-Gly-Glu-Arg-Arg-Tyr-Gly-Thr-Cys-Ile-Tyr-Gln-Gly-Arg-Leu-Trp-Ala-Phe-Cys-Cys-OH (CYCRIPACIAGERRYGTCIYQGRLWAFCC-OH; cysteine pairing not given here) [Peptide 1]”, the “induction of phagocytosis as compared to the control experiment” value worked out at 14.3%. Next, “Ser-Glu-Ile-Trp-Arg-Asp-Ile-Asp-Phe-OH (SEIWRDIDF-OH) [Peptide 2]”: 40.0%.
